Among the data in PubChem BioAssay AID463173 (ICCB-Longwood Screening Facility, Harvard Medical School, 2010) are survival values, retold here.

Among all 52,000 compounds or so, about 4,300 (8.3%) were called active. No stated cut-off is given here; in the data, active means survival mostly below about 52% (no sharp cut-off); inactive means mostly above about 56%. This is one part of the list.

The assay deals with DeltatarO mutant. The experiment in a line: growth inhibition of S. aureus wild type versus tarO mutant, primary screen, teichoic acid synthesis inhibitors, RN4220, OD600 (AID 463173). The settings on record: OD600, 18 h, stronger effect = lower value, screened at 18.75 µg/mL (by protocol).
For the compound `COc1ccc(C(=O)Nc2ccccc2C(=O)NC(C(=O)NCc2ccco2)C(C)C)cc1` (stereo not drawn), the survival is inactive: 65%. To `COc1ccc(CCNC(=O)c2c(O)nc3cc(C)ccn3c2=O)cc1OC` belongs inactive: 56%.

Turning to `Cc1cc(-c2ccc(C)c(S(=O)(=O)N3CCCC(C)C3)c2)on1` (stereo not drawn), the survival was inactive: 79%. To `COC(=O)c1c(C)oc2ccc(N(C(=O)c3ccncc3)S(=O)(=O)c3cc(C)c(C)cc3C)cc12` belongs inactive: 50%; to `COc1ccc(C(CC(=O)Nc2ccc(C)cn2)N2Cc3ccccc3C2=O)cc1OC` (stereo not drawn), inactive: 89%. For `CCOC(=O)N1CCC(NC(=O)c2ccc3c(c2)N(Cc2cccc(C)c2)C(=O)c2ccccc2S3(=O)=O)CC1`, the survival is inactive: 97%. To `CCOC(=O)c1c(S(=O)(=O)N2CCC(C(=O)N3CCN(c4cccc(C)c4C)CC3)CC2)c(C)n(C)c1C` belongs inactive: 90%; to `CCn1cnc2c(cnn2-c2ccccc2)c1=O`, inactive: 91%; to `CCC(CC)C(=O)Nc1cc(-c2cn3cccnc3n2)ccc1OC`, inactive: 86%. For `CCOc1ccccc1C1N=C(N)Nc2nc3ccccc3n21` (stereo not drawn), the survival was inactive: 81%.

As to `Cc1nc(N2CCCC2)c2c(C(=O)Nc3ccc(C)c(Cl)c3)c(C)oc2n1`, the survival is inactive: 124%. For the compound `Cc1ccccc1-c1nnc(CN2CCN(c3cc(Cl)ccc3C)CC2)o1`, the survival is inactive: 74%. `O=C(CSc1nnc(COc2ccc(Cl)cc2)o1)Nc1ccccc1`: the survival was inactive: 51%.

`CCOc1ccc(C(=O)Nc2c(C(=O)c3ccccc3)oc3ccccc23)cc1`: the survival was inactive: 72%. As for `Cc1ccc(CN2CCSc3ccc(C(=O)Nc4ccc(Cl)cc4)cc32)cc1`, the survival was inactive: 100%.

As to `CCCN(CCC)CCCNC(=O)c1cc2c(=O)oc3ccc(C)cc3c2s1`, the survival was inactive: 113%. `CC(NC(=O)C1(c2cccs2)CCOCC1)c1ccccc1` (stereo not drawn): the survival is inactive: 99%.

As for `N#Cc1c(/N=C/c2ccco2)oc(-c2ccccc2)c1-c1ccccc1`, the survival was inactive: 98%. To `CCOc1ccc(CCNC(=O)CCCc2cc(-c3ccc(OCC)cc3)on2)cc1` belongs inactive: 92%. To `Cc1nc2cccnc2n1C1CCN(S(=O)(=O)c2ccc(Cl)cc2)CC1` belongs inactive: 83%; to `COc1cccc(CNC(=O)c2nnn(CC(=O)Nc3cc(Cl)ccc3C)c2N)c1`, active: 25%; to `CCC(=O)Nc1ccc2nc(C)n(Cc3ccccc3)c(=O)c2c1`, inactive: 69%. To `O=S(=O)(c1ccc(F)cc1)N1CCC(Oc2ccc(-n3cnnn3)cc2)CC1` belongs inactive: 70%; to `COC(=O)c1ccc(N=NN2CCCCC2)cc1`, inactive: 96%. As to `Cc1ccc(Nc2cc(C)nc3nc(Cc4ccc(Cl)cc4)nn23)cc1`, the survival is inactive: 52%.

`Cc1cccc(N2C(=O)C(CC(=O)Nc3cccc(F)c3)N(Cc3cccs3)C2=O)c1` (stereo not drawn): the survival was active: 8%.

For the compound `CCC(=O)N1CCc2cc(Br)cc(S(=O)(=O)CCC(=O)Nc3cccc(CC)c3)c21`, the survival is inactive: 105%.

With `Cc1ccc(-c2ccc(=O)n(Cc3ccc(F)cc3)n2)cc1`, the survival was inactive: 50%. To `CCOc1ccc(NC(=O)c2c(NC(=O)c3ccco3)sc3c2CCC(C(C)(C)C)C3)cc1` (stereo not drawn) belongs inactive: 68%; to `O=C(O)CC(NS(=O)(=O)c1ccc(Cl)s1)c1ccccc1` (stereo not drawn), inactive: 76%. To `Cc1nc2cccnc2n1-c1cccc(C(=O)NCc2ccc(OC(C)C)cc2)c1` belongs inactive: 71%. To `COc1cc(NS(=O)(=O)c2ccc(NC(=O)C(C)Oc3ccc(Cl)cc3Cl)cc2)nc(OC)n1` (stereo not drawn) belongs inactive: 49%.

For `COc1ccc(Nc2c(-c3ccc(Cl)cc3)nc3cnccn23)cc1OC`, the survival was inactive: 58%. To `CC(C)c1ccccc1NC(=O)CC(C)(C)C` belongs inactive: 74%; to `Cc1cc(C)cc(Oc2coc3c(CN4CCN(C)CC4)c(O)ccc3c2=O)c1`, inactive: 53%; to `O=C(NCc1ccccc1Cl)C1CCN(S(=O)(=O)c2ccc3c(c2)CCCN3C(=O)C2CCC2)CC1`, inactive: 85%. With `CCC12CN3CC(C)(CN(C1)C3c1ccc(O)cc1O)C2=O` (stereo not drawn), the survival was inactive: 78%. Consider `Cc1ccc2nc(/C(C#N)=C/c3cccc(Br)c3)[nH]c2c1`, for which the survival is active: 3%.

Take `Cc1ccccc1CN1CCC(CNc2ncnc3onc(-c4ccc(Cl)cc4)c23)CC1`: the survival was inactive: 67%. `CN(C)S(=O)(=O)n1cc(/C=C(\NC(=O)c2ccccc2F)C(=O)NCCCn2ccnc2)c2ccccc21`: the survival was inactive: 99%. To `CC(=O)Nc1nnc(SCC(=O)N2CCCC2)s1` belongs inactive: 55%.

Consider `COc1ccc2[nH]c(=O)c(CN(Cc3cccs3)C(c3nnnn3C(C)(C)C)C(C)C)cc2c1` (stereo not drawn), for which the survival is inactive: 107%. To `Cc1ccc(NC(=O)C2CCCN(c3ncnc4c3nc3n4CCCCC3)C2)cc1F` (stereo not drawn) belongs inactive: 92%. As for `CCOc1ccccc1CNC(=O)Cn1c(-c2ccccc2)cc(C(C)=O)c1C`, the survival was inactive: 58%. To `O=C(NC1CC(=O)N(c2cccc(F)c2)C1)c1ccc(S(=O)(=O)N2CCCC2)cc1` (stereo not drawn) belongs inactive: 68%; to `O=C(Cn1c(=O)n(Cc2ccccc2)c(=O)c2sc3ccccc3c21)NCc1ccccc1Cl`, inactive: 112%. To `O=C(CCc1nc(-c2cccs2)no1)Nc1ccccc1[N+](=O)[O-]` belongs inactive: 82%; to `Cc1ccn2c(=O)c(C(=O)NCCc3ccccc3)c(O)nc2c1`, inactive: 136%.

As for `CC1CC(C)(C)NC(=O)O1` (stereo not drawn), the survival was inactive: 96%. For the compound `Cc1ccc2nc(NC(=O)CSc3nccn3Cc3ccc(Cl)cc3)sc2c1`, the survival is inactive: 96%. To `COc1ccc(CCNC(=O)c2cnc3ccc(C)cn3c2=O)cc1` belongs inactive: 100%; to `CCCS(=O)(=O)c1c(S(=O)(=O)CCC)c2cc(CC)ccn2c1C(=O)c1ccc(OC)cc1`, inactive: 84%. As for `COc1cccc(Cn2nnc(C(=O)Nc3cc(C)ccc3C)c2N)c1`, the survival was inactive: 100%. For the compound `CC(C)CS(=O)(=O)c1oc(-c2ccc(F)cc2)nc1S(=O)(=O)c1ccccc1`, the survival is active: -4%.

As for `CCOc1ccc(NC(=O)N2CCC(C(N)=O)(N3CCCCC3)CC2)cc1`, the survival is inactive: 101%. To `COc1ccc(N2CCN(C(=O)C3CCCN(S(=O)(=O)c4ccc5c(c4)CCCN5C(C)=O)C3)CC2)cc1` (stereo not drawn) belongs inactive: 115%; to `COc1ccc(OC)c(-c2cc(C(=O)NCCc3ccccc3)c3c(-c4ccc(C)cc4)[nH]nc3n2)c1`, inactive: 67%. To `CC(NC(=O)CCCC1=NS(=O)(=O)c2ccccc2N1)c1ccccc1` (stereo not drawn) belongs inactive: 83%.
